Inconclusive means that the source gave no clear call. Such entries were picked first, then a sample of the others. For some assays here: No potency is given beside an inconclusive call; the fits are too rough. The source made the active and inactive calls. Unless noted, calls come from the whole dose curve; as a rule, active = well fitted curve in the direction sought with a large enough effect in the repeat runs; inconclusive = weak or mixed curves; inactive = no such curve, though single readings can be large; an effect the other way counts as inactive or inconclusive.
Key:
[1] = molecular target: Glucocorticoid receptor (Homo sapiens) (UniProt P04150); experiment: qHTS assay to identify small molecule agonists of the glucocorticoid receptor (GR) signaling pathway (AID 720691; active = well fitted activation curve with a large enough effect in the signal ratio in the repeat runs, not every such curve was filed as active; inconclusive = weak or mixed curves, or effect the other way; inactive = no such curve, though single readings can be large or run the other way; the % refers to the signal ratio; note: % is set by controls: 0 for no effect and ±100 for the full control effect); details: GR-bla HeLa, beta-lactamase reporter ratio, 18 h; activation: at 62.4 µM (top of the series) unless noted
Chain of UniProt P04150 (P04150 whole entry, looked up): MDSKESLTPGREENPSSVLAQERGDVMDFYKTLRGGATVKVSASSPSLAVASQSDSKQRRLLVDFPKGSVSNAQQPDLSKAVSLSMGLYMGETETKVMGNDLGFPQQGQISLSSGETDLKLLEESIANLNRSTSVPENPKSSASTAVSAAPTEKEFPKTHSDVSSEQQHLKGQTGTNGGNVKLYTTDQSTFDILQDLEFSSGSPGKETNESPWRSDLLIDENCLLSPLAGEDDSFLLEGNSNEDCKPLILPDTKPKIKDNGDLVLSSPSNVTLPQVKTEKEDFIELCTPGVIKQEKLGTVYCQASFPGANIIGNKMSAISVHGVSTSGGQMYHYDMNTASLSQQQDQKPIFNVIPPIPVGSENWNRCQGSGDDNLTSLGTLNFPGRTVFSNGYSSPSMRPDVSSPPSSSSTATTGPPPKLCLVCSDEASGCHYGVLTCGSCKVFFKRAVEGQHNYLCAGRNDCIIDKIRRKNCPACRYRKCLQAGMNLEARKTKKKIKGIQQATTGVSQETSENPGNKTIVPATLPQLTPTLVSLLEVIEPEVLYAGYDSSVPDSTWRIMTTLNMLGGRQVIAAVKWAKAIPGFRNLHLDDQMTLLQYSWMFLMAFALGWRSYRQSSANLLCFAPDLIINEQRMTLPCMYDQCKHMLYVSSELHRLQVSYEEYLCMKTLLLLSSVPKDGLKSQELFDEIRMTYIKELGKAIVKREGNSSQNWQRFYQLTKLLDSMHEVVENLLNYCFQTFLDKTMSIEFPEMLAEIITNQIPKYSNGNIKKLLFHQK
Summary of the method: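 Cells: GR-bla HeLa, endogenous GR with stably integrated GRE-beta-lactamase reporter. Treatment 18 h, 37 C, compounds delivered in DMSO. Detection via LiveBLAzer B/G FRET substrate, 2 h RT, fluorescence intensity.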

[2] = qHTS assay to identify small molecule antagonists of the androgen receptor (AR) signaling pathway using the MDA cell line - cell viability counter screen (AID 743041; note: potency is the fitted concentration of half-maximal effect; nearly all actives have a fitted effect of over 45% in size); details: MDA-kb2 viability, CellTiter-Fluor, 16 h, cells co-treated with R1881 androgen agonist; viability change, negative = cytotoxic: at 70.3 µM (top of the series)
Summary of the method: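 In this qHTS counter assay, fluorescence intensity after CellTiter-Fluor addition indicated viability of MDA-kb2 AR-luc cells given compounds and R1881 for 16 h at 37C.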

[3] = test system: thyroid hormone receptor (rat, GH3 cells); experiment: qHTS assay to identify small molecule agonists of the thyroid receptor (TR) signaling pathway (AID 743066; calls by dose curve; note: % is set by controls: 0 for no effect and ±100 for the full control effect); details: GH3.TRE-Luc cells, TR agonist luciferase, 24 h; activation: at 83.9 µM (top of the series) unless noted
[4] = molecular target: Nuclear receptor subfamily 1 group I member 2 (Homo sapiens) (UniProt O75469); experiment: CYP3A4 induction through human pregnane X receptor (PXR) by small molecules, qHTS assay (AID 1346984); details: DPX-2 HepG2 PXR, CYP3A4-luciferin luminescence, 24 h; activation: at 46.1 µM (top of the series) unless noted; note: potency is the fitted concentration of half-maximal effect; nearly all actives have a fitted effect of over 40% in size
Summary of the method: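 Induction measured in HepG2-based DPX-2 cells co-expressing human PXR and a CYP3A4 promoter-driven luciferase. After a 24-hour compound exposure, cells received CYP3A4 luciferin substrate at 3uM final for 3 hours, and light output was then recorded.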

[5] = molecular target: Nuclear receptor subfamily 1 group I member 2 (Homo sapiens) (UniProt O75469); experiment: Human pregnane X receptor (PXR) activation by small molecules, qHTS assay (AID 1346985); note: nearly all actives have a fitted effect of over 40% in size; note: potency is the fitted concentration of half-maximal effect
Summary of the method: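 DPX-2 cells (HepG2 co-transfected with a PXR response element and a CYP3A4-promoter luciferase construct) were seeded at 2,000 per well, rested 5 hr at 37C, then exposed to DMSO-dissolved compounds for 24 hr. Activation was read as luciferase luminescence.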

[6] = qHTS assay for small molecules that induce genotoxicity in human embryonic kidney cells expressing luciferase-tagged ATAD5 - cell viability (AID 651634; calls by dose curve; note: potency is the fitted concentration of half-maximal effect; nearly all actives have a fitted effect of over 25% in size)
Summary of the method: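 After 15.5 hr incubation with compound at 37C, 5% CO2, HEK293T ATAD5-luciferase cells received CellTiter-Fluor reagent; fluorescence intensity was quantified following 30 min at 37C.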

[7] = molecular target: Estrogen receptor (Homo sapiens) (UniProt P03372); experiment: qHTS assay to identify small molecule agonists of the estrogen receptor alpha (ER-alpha) signaling pathway (AID 743075; calls by dose curve;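 note: HEK293 GripTite cells with ER-alpha and UAS-driven beta-lactamase reporter; % is set by controls: 0 for no effect and ±100 for the full control effect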); details: HEK293 ER-alpha-UAS-bla, beta-lactamase FRET ratio, 18 h; activation: at 70.1 µM (top of the series)
Chain of UniProt P03372 (P03372 whole entry, looked up): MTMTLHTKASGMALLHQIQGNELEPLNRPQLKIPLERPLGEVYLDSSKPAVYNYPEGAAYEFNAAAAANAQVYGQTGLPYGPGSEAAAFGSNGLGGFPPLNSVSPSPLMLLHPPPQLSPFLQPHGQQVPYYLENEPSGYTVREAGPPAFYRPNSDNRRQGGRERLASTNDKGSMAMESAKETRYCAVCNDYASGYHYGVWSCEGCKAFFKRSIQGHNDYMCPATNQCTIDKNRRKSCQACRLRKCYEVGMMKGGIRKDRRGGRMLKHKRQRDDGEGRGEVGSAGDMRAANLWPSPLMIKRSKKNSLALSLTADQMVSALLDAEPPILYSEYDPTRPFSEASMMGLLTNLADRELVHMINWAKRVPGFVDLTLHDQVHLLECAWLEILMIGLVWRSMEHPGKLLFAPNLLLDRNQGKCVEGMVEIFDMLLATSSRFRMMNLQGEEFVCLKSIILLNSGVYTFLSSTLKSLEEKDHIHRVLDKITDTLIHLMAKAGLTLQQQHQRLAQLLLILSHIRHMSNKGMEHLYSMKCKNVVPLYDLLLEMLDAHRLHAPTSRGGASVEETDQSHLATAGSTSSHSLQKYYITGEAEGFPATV

[8] = molecular target: Nuclear receptor subfamily 1 group I member 2 (Rattus norvegicus) (UniProt Q9R1A7); experiment: Rat pregnane X receptor (rPXR) activation by small molecules, qHTS assay (AID 1346983); details: rPXR luciferase reporter cells, One-Glo luminescence, 24 h; max activation: hits give high values; note: potency is the fitted concentration of half-maximal effect; nearly all actives have a fitted effect of over 20% in size
Chain of UniProt Q9R1A7 (Q9R1A7 whole entry, looked up): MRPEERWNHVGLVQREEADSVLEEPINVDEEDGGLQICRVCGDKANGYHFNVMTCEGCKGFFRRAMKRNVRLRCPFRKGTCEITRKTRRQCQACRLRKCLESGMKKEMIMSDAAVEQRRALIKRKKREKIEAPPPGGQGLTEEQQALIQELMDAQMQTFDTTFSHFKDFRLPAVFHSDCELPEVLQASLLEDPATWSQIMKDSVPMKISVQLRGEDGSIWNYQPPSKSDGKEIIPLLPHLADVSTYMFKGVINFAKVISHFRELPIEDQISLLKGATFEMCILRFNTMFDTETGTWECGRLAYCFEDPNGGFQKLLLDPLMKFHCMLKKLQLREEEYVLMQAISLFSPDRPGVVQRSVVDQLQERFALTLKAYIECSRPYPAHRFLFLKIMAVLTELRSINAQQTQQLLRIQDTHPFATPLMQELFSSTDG
Summary of the method: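 Cell-based rPXR luciferase reporter assay, 2,000 cells per well, rested 5hr at 37 C before compound addition in DMSO, then 24 hr at 37 C. One-Glo reagent was added and luminescence read after 30 min at room temperature.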

[9] = qHTS assay to identify small molecule antagonists of the peroxisome proliferator-activated receptor gamma (PPARg) signaling pathway - cell viability counter screen (AID 743194); details: PPARg-bla HEK293H viability, CellTiter-Glo luminescence, 17 h, co-treated with 50 nM rosiglitazone; activity change, negative = cytotoxicity: at 62.6 µM (top of the series) unless noted; note: nearly all actives have a fitted effect of over 55% in size; note: potency is the fitted concentration of half-maximal effect
Summary of the method: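 PPARg-UAS-bla HEK293H cells were plated, rested 5 h at 37 C, then treated with compounds plus rosiglitazone (50 nM final) for 17 h at 37 C; viability was then read by CellTiter-Glo luminescence after 30 min at room temperature.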

[10] = molecular target: Peroxisome proliferator-activated receptor delta (Homo sapiens) (UniProt Q03181); experiment: qHTS assay to identify small molecule agonists of the peroxisome proliferator-activated receptor delta (PPARd) signaling pathway (AID 743212; calls by dose curve;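 note: HEK293H cells with PPARd UAS beta-lactamase reporter GeneBLAzer system; % is set by controls: 0 for no effect and ±100 for the full control effect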); details: HEK293H PPARd-UAS-bla, beta-lactamase FRET ratio, 17 h; activation: at 62.6 µM (top of the series) unless noted
Chain of UniProt Q03181 (Q03181 whole entry, looked up): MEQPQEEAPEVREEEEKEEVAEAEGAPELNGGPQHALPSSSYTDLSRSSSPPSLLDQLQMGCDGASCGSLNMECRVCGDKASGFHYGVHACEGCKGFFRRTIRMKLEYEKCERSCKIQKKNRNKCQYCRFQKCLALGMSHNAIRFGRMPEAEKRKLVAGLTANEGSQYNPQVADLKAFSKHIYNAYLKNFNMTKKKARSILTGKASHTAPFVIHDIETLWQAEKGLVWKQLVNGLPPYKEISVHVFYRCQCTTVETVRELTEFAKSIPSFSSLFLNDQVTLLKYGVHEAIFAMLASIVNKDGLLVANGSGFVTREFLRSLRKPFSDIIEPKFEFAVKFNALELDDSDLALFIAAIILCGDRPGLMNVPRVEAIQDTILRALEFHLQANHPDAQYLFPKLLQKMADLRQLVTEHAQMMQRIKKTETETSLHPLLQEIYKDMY
Summary of the method: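 Beta-lactamase reporter read by fluorescence (LiveBLAzer B/G FRET, 2 h, room temperature). Test agents, in DMSO, incubated at 37 C with PPARd-bla HEK293H cells.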

[11] = qHTS assay for small molecule agonists of the antioxidant response element (ARE) signaling pathway - cell viability counter screen (AID 743203; calls by dose curve; note: % is set by controls: 0 for no effect and ±100 for the full control effect; nearly all actives have a fitted effect of over 55% in size); details: ARE-bla HepG2 viability, CellTiter-Glo luminescence, 16 h; viability change, negative = cytotoxic: at 73.3 µM (top of the series)
Summary of the method: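 Viability counter screen: stably transfected ARE-bla HepG2 line, 16 hrs compound exposure at 37C/5% CO2, ATP-based CellTiter-Glo luminescence measured in the reporter wells.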

[12] = molecular target: Aryl hydrocarbon receptor (Homo sapiens) (UniProt P35869); experiment: qHTS assay to identify small molecule that activate the aryl hydrocarbon receptor (AhR) signaling pathway (AID 743085); note: nearly all actives have a fitted effect of over 15% in size; note: potency is the fitted concentration of half-maximal effect
Chain of UniProt P35869 (P35869 whole entry, looked up): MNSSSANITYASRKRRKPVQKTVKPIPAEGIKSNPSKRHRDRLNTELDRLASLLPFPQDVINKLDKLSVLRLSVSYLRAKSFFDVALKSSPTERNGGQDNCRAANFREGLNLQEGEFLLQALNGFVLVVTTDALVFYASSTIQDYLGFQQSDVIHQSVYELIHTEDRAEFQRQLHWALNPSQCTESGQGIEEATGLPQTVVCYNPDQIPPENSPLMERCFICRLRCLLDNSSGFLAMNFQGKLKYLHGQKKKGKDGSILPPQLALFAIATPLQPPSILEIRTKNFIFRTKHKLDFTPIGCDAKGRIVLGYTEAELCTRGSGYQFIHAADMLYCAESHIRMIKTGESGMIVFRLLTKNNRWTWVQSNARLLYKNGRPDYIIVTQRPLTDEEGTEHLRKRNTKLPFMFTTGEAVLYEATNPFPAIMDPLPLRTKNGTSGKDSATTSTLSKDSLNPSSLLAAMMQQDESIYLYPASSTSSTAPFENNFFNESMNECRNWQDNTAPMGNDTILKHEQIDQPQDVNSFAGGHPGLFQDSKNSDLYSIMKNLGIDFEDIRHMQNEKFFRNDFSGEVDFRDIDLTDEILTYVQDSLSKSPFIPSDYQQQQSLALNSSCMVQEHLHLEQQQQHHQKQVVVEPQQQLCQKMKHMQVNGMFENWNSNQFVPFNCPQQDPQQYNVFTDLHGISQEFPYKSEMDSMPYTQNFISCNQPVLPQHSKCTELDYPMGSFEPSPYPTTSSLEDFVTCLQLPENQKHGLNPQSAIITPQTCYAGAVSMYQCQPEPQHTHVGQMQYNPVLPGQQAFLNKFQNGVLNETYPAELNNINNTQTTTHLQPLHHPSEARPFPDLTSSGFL
Summary of the method: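 Luminescence (ONE-Glo) from a dioxin-responsive-element luciferase reporter in HG2L7.5c1 HepG2 cells after 24 hr compound exposure at 37C; viability measured by CellTiter-Fluor fluorescence beforehand.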

[13] = qHTS assay to identify small molecule antagonists of the glucocorticoid receptor (GR) signaling pathway - cell viability counter screen (AID 720693); details: GR-bla HeLa viability, CellTiter-Glo luminescence, 18 h, with 5 nM dexamethasone present; viability change, negative = cytotoxic: at 58.5 µM (top of the series); note: % is set by controls: 0 for no effect and ±100 for the full control effect; nearly all actives have a fitted effect of over 55% in size
Tags give direction and shape of the fitted curve.

N#Cc1ccc2c(c1)N(CCCN1CCC(O)CC1)c1ccccc1S2
Potency [1]: inactive | Potency [2]: inconclusive [cytotoxic, partial curve, poor fit] | activation [3]: inconclusive: -9.37% [phenotype inactive] | Potency [4]: inconclusive [activator, partial curve, poor fit] | Potency [5]: inconclusive [activator, partial curve, poor fit]

C=C[C@]1(C)C[C@@H](OC(=O)CSC(C)(C)CNC(=O)[C@H](N)C(C)C)[C@]2(C)[C@H](C)CC[C@]3(CCC(=O)[C@H]32)[C@@H](C)[C@@H]1O
Potency [6]: inconclusive [falling, partial curve, poor fit] | Potency [2]: inconclusive [cytotoxic, single point] | Potency [7]: inactive | Potency [8]: inconclusive [activator, full curve, poor fit]

CCCOCCOCCOCCO
Potency [9]: inconclusive [cytotoxic, full curve, poor fit] | Potency [10]: inactive

CC/C(C)=N/O
Potency [9]: inactive | Potency [11]: inactive

CC(C)CCCC(C)CCCC(C)CCCCC(C)CCCC(C)CCCC(C)C (centres undefined)
Potency [12]: inconclusive [activator, partial curve, poor fit] | Potency [4]: inconclusive [activator, full curve, poor fit] | Potency [5]: inactive

CC(C)(C)C1(O)CCN2CC3c4ccccc4CCc4cccc(c43)C2C1 (centres undefined)
Potency [2]: inconclusive [cytotoxic] | Potency [8]: inconclusive [activator, partial curve] | Potency [5]: active: 14.1 µM

O=C(O)c1c(Cl)c(Cl)c(Cl)c(Cl)c1-c1c2cc(I)c(=O)c(I)c-2oc2c(I)c(O)c(I)cc12
Potency [2]: active: 24.8 µM | Potency [12]: active: 6.68 µM | Potency [4]: inconclusive [activator, partial curve, poor fit] | Potency [5]: inactive

CC(=O)Nc1ccccc1C
Potency [12]: inactive

CCCCc1ccc(Cl)cc1
Potency [12]: inconclusive [activator, partial curve, poor fit]

c1ccc2c(c1)Sc1ccccc1N2CCN1CCCC1
Potency [13]: inactive | Potency [12]: inconclusive [activator, partial curve] | Potency [8]: inconclusive [activator, full curve, poor fit] | Potency [4]: active: 10 µM

From PubChem BioAssay (Tox21)
